What all share (assay): co-IP; anti-FLAG M2 beads; 3×FLAG-tagged SPOC domains, full-length or ΔSPOC proteins expressed in HEK293T; lysis in 50 mM Tris-Cl pH 8, 150 mM NaCl, 0.1% Triton with benzonase; elution with 3×FLAG peptide; western blot; performed once
Assay [1] concerns the target 3×FLAG-NLS-RBM15-SPOC (human) (UniProt Q96T37).
The target in assay [2] is 3×FLAG-RBM15 (human) (UniProt Q96T37).
The target in assay [3] is 3×FLAG-PHF3 (human) (UniProt Q92576).
Assay [4] has as its target 3×FLAG-DIDO3 (human) (UniProt Q9BTC0).

Chains of the proteins cited; added tags and fusions are not shown.
UniProt P12004: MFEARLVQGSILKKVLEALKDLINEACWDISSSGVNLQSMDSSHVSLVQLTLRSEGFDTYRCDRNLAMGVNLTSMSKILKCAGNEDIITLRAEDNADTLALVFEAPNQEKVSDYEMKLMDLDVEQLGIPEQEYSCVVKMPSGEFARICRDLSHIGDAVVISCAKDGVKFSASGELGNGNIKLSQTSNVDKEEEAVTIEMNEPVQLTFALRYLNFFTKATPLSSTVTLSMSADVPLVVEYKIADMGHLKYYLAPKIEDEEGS
UniProt Q69YN4: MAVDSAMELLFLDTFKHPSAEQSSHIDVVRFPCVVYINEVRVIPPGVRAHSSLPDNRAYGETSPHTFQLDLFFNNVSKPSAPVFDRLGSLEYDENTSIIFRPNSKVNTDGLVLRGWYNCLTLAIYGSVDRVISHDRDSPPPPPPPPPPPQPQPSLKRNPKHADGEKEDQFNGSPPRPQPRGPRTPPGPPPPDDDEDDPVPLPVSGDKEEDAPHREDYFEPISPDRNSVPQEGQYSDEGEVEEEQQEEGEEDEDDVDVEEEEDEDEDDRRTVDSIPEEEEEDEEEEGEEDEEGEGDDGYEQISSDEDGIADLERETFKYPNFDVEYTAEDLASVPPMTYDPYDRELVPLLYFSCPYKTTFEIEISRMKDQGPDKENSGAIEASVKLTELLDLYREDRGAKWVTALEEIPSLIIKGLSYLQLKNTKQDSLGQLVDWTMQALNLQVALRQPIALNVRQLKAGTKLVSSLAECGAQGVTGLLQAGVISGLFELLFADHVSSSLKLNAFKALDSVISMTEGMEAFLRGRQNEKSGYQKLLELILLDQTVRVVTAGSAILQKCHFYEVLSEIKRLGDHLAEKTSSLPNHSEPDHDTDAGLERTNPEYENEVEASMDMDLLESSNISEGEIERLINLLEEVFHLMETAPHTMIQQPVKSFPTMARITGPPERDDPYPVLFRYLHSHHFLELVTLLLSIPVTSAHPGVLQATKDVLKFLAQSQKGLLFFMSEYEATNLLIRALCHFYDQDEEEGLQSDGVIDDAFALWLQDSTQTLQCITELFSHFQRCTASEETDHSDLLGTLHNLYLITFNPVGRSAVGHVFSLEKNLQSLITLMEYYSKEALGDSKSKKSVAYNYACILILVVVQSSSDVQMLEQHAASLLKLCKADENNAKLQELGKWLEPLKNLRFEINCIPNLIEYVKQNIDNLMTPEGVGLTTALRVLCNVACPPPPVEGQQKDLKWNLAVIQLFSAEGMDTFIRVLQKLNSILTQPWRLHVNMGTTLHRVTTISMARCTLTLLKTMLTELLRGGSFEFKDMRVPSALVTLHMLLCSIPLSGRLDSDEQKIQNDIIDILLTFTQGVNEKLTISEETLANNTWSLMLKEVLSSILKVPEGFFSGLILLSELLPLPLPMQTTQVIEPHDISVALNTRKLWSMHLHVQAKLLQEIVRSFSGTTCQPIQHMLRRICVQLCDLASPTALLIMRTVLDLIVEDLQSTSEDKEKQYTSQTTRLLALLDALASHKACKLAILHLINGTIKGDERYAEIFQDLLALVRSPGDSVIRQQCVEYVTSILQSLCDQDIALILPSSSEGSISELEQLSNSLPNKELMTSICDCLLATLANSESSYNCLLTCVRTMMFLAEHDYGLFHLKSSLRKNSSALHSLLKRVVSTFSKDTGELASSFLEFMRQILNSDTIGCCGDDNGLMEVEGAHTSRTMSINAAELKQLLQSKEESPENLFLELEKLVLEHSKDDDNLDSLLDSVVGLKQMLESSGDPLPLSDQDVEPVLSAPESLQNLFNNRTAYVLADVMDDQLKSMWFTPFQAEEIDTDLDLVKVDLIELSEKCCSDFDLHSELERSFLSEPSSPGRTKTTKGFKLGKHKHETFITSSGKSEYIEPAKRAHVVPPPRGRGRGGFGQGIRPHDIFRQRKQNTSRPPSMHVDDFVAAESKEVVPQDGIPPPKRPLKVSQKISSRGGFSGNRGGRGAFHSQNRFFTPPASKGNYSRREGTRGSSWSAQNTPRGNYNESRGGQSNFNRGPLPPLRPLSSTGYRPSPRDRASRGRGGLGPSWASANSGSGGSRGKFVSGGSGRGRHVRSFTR
UniProt Q5T200: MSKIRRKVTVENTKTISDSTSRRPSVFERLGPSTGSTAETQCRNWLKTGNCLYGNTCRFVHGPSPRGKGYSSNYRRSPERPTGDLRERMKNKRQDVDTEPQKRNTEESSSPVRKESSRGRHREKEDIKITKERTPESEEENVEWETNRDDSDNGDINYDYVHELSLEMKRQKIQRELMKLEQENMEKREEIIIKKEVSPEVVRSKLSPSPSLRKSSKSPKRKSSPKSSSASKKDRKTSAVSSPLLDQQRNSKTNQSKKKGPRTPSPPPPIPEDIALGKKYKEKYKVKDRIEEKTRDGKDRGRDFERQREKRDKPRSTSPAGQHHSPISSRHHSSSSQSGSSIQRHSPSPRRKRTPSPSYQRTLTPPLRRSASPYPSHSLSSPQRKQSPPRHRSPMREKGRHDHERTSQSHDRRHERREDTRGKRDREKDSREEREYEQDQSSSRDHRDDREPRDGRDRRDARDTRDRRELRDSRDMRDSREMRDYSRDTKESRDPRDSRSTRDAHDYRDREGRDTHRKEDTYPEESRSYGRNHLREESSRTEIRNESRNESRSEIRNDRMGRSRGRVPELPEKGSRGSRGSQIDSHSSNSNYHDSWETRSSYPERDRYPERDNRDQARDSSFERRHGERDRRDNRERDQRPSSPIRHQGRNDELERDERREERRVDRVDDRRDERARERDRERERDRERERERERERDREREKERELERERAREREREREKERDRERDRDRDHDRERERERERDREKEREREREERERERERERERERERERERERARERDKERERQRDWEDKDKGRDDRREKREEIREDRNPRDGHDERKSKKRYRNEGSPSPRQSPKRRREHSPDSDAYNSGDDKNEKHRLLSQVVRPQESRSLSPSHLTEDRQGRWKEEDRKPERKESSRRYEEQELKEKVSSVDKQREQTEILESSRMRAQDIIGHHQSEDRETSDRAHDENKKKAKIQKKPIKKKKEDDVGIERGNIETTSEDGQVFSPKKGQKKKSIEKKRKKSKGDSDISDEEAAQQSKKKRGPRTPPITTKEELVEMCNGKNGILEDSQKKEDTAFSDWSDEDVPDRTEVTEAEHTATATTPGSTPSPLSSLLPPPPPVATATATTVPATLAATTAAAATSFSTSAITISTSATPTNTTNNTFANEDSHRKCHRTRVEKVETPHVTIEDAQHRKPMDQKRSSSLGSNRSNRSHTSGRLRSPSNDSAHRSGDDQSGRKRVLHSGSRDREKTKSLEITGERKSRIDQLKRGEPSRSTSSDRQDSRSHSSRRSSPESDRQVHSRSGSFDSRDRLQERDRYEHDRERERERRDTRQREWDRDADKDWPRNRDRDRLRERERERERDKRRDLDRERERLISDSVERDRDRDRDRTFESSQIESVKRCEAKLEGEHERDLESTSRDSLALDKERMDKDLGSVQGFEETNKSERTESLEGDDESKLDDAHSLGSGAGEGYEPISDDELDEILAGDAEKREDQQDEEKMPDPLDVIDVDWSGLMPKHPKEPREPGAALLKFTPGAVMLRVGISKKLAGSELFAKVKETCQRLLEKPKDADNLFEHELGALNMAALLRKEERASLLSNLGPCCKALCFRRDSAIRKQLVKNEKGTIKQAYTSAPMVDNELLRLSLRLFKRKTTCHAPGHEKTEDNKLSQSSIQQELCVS
UniProt Q9H5H4: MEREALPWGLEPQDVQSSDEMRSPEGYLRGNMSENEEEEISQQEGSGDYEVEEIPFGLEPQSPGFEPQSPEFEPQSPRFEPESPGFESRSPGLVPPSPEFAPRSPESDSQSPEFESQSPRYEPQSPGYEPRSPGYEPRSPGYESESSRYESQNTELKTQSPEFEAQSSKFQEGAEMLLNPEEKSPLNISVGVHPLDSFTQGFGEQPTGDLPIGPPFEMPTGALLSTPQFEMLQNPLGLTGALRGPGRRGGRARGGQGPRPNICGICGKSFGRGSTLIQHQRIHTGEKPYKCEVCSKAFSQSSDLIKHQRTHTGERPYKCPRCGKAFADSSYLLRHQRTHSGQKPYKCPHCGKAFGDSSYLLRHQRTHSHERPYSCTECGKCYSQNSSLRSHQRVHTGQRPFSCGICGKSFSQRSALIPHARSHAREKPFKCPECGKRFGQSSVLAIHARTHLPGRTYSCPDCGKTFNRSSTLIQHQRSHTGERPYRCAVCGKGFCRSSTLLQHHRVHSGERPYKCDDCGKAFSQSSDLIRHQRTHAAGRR

Results are given in words; binding and its absence hold for the method and conditions named. In cells and extracts the contact can be indirect. Some results given as binding are weak or reduced against the parent protein; the word gives no strength. For part of these data: Tags and fused reporters may be left off the sequences shown.

Consider PCNA (from UniProt P12004 1-261), for which the binding entry is given as “binds” in assay [1] and “no binding” in assay [2]. Regarding “VIRMA/KIAA1429 (from UniProt Q69YN4 1-1812)”, the binding entry in assay [1] is given as “binds”. The same measure, in the same setting: next, ZC3H13 (from UniProt Q5T200 1-1668): “binds”. On to ZNF768 (from UniProt Q9H5H4 1-540), for which the binding entry in assay [3] and in assay [4] was “binds” each time.
